Out of some 330,000 compounds screened, about 4,200 (1.3%) were called active. This list was built around the results that the source calls inconclusive (neither active nor inactive); the mix of calls is not that of the screen. Calls follow the shape of the dose curve; as a rule, active = well fitted activation curve with a large enough effect; inconclusive = small, poorly fitted or top-dose-only effect; inactive = no such curve, though single readings can be large or run the other way. Where the call is inconclusive, the potency comes from a doubtful curve fit.
Assay: qHTS screen for small molecules that induce genotoxicity in human embryonic kidney (HEK293T) cells expressing luciferase-tagged ELG1; also: nearly all actives have a fitted effect of over 60% in size
Details: HEK293T ELG1-luciferase reporter, luminescence, 16 h; series mostly up to 46 µM
How it was run: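 Genotoxic stress is detected as increased luminescence from luciferase-tagged ELG1 in HEK293T cells, measured with ONE-Glo after a 16 hr treatment at 37 °C.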
Potency is read from the fitted curve at half-maximal effect; tags tell the direction and shape of the fitted curve.

Row | SMILES | Potency
1 | Cc1ccnc(NC(=O)c2cc3cc(F)ccc3s2)c1 | inconclusive: 1.64 µM [activator, full curve]
2 | CCN1CCN(Cc2ccccc2NC(=O)Nc2ccc(C)cc2)CC1 | active: 10.3 µM
3 | N#C/C(=C\c1ccccc1O)C(=O)Nc1cccnc1 | inconclusive: 5.8 µM [activator, partial curve]
4 | COc1cc(OC)cc(C(=O)NCC(=O)Nc2ccc(C)c(Cl)c2)c1 | inactive
5 | Cc1cc(NC(C)c2ccccc2)n2ncc(-c3ccccc3)c2n1 (stereo not given) | inconclusive: 5.8 µM [activator, partial curve]
6 | S=C(NCCN1CCCCC1)Nc1ccccc1 | inactive
7 | O=C(Nc1ccc(-c2cnco2)cc1)c1ccccc1 | inconclusive: 20.6 µM [activator, partial curve]
8 | Nc1nnnn1/N=C/c1ccc(Br)cc1 | inconclusive: 23.1 µM [activator, partial curve, poor fit]
9 | CCCCc1ccc(-c2nc(NC(=O)C3C4CCC(O4)C3C(=O)O)sc2C)cc1 (stereo not given) | active: 16.4 µM
10 | Cc1ccc(-n2nc(C)c3c2OC(N)=C(C#N)C3c2ccc(C)o2)cc1 (stereo not given) | inactive
11 | CC1=NN(c2ccccc2)C(=O)/C1=C/c1c(O)n(-c2ccc(F)c(Cl)c2)[nH]c1=O | inactive
12 | Cc1c(/C=N/Nc2ccc([N+](=O)[O-])cn2)c2ccccc2n1Cc1ccccc1 | inconclusive: 13 µM [activator, partial curve]
13 | C/C(=C\C(=O)c1cccnc1)Nc1ccc(C)c(C)c1 | inconclusive: 18.4 µM [activator, partial curve, poor fit]
14 | Cc1ccnn1-c1ccc(C(=O)OCC(=O)Nc2ccc(F)cc2)cc1 | inactive
15 | COc1ccc(OCCOC(=O)c2ccc(F)c(S(=O)(=O)N3CCOCC3)c2)cc1 | inactive
16 | COc1ccc(/C=N/NC(=O)c2ccccc2Cl)cc1CSc1nc2ccccc2s1 | inconclusive: 25.9 µM [activator, single point]
17 | O=[N+]([O-])c1cc(C(F)(F)F)ccc1N1CCCC(O)C1 (stereo not given) | inactive
18 | CCOc1ccc2nc(SCC3CC3(Cl)Cl)[nH]c2c1 (stereo not given) | inconclusive: 10.3 µM [activator, partial curve]
19 | Cc1ccc(NC(=O)c2ccn(C)n2)c(Br)c1 | active: 5.17 µM
20 | CSc1nc(SCC(=O)O)c2c3c(sc2n1)COC(C)(C)C3 | inactive
21 | CC(C)Cc1nnc(NC(=O)C2=COCCO2)s1 | inconclusive: 14.6 µM [activator, partial curve]
22 | Brc1ccccc1-n1nnc(-c2nccs2)n1 | active: 8.2 µM
23 | CC1(C)CC(=O)c2sc(NC(=O)C(C)(C)C)nc2C1 | inconclusive: 23.1 µM [activator, partial curve, poor fit]
24 | Clc1ccc(OCc2cn3cccnc3n2)c2ncccc12 | active: 15.8 µM
25 | COCc1nnc(NC(=O)c2ccc(OC)cc2OC)s1 | active: 8.2 µM

Row | SMILES | Potency
26 | O=C(NCCc1c[nH]c2ccccc12)c1cnc2n(c1=O)CCS2 | inactive
27 | CCc1c(C)sc(NC(=O)c2ccco2)c1C#N | inconclusive: 20.6 µM [activator, single point]
28 | O=C(Nc1ccc2nc(-c3ccco3)[nH]c2c1)c1ccco1 | active: 16.4 µM
29 | C(=N\N(c1ccccc1)c1ccccc1)/c1ccc(N2CCOCC2)s1 | inactive
30 | CCN1CCN(c2ccc(NC(=O)CCc3c(C)nc4c(-c5ccc(F)cc5)c(C)nn4c3C)cc2)CC1 | inactive
31 | O=C1/C(=C/c2ccccc2)CCCc2ccccc21 | inconclusive: 16.4 µM [activator, partial curve, poor fit]
32 | C/C(=N\Nc1nncc2ccccc12)c1ccc(O)cc1 | inactive
33 | Fc1ccc2nc(Nc3nc4cc5c(cc4s3)OCCO5)sc2c1 | inconclusive: 6.51 µM [activator, partial curve]
34 | O=C(c1ccccc1Cl)N(C(=O)c1ccccc1Cl)c1nccc(-c2cccs2)n1 | inconclusive: 20.6 µM [activator, partial curve]
35 | Clc1ccc(Cc2noc(-c3cccs3)n2)cc1 | active: 6.51 µM
36 | O=C1Nc2ccccc2CCC1Sc1nnc(-c2ccc(Cl)cc2)s1 (stereo not given) | inactive
37 | O=C(Cc1cccc2ccccc12)N/N=C1\CCCc2ccccc21 | inactive
38 | Cc1nc(NCCc2ccc(F)cc2)c(C#N)c(C)c1[N+](=O)[O-] | inconclusive: 29.1 µM [activator, single point]
39 | O=c1c2ccccc2cnn1-c1ccc(Cl)cc1 | inconclusive: 3.26 µM [activator, full curve]
40 | N=c1c(S(=O)(=O)c2ccc(Cl)cc2)cc2c(=O)n3ccccc3nc2n1C1CCCCC1 | inconclusive: 16.4 µM [activator, partial curve]
41 | Cc1cc(C)nc(NC(=O)c2ccc(C)c([N+](=O)[O-])c2)n1 | inactive
42 | CCOC(=O)c1ccc(NC(=O)Cn2ncc(Cl)c(Cl)c2=O)cc1 | inconclusive: 6.51 µM [activator, single point]
43 | COc1ccc(NC(=O)CN2CCC(C)CC2)c([N+](=O)[O-])c1 | active: 16.4 µM
44 | O=C(COc1ccc(Cl)cc1)Nc1ncccn1 | active: 20.6 µM
45 | CCNC(=S)NNC(=O)c1cc(-c2ccc(OC)cc2)nc2ccccc12 | inconclusive: 2.06 µM [activator, partial curve, poor fit]
46 | Cc1ccc(/C=N/NC(=O)c2cc(C)oc2C)cc1 | inconclusive: 16.4 µM [activator, partial curve, poor fit]
47 | CCOC(=O)c1ccc(N=c2sc(C(=O)OC)cc(=O)n2-c2ccc(C(=O)OCC)cc2)cc1 | inconclusive: 29.1 µM [activator, partial curve, poor fit]
48 | O=c1c(Cc2c(F)cccc2Cl)c(O)ccn1CCCn1ccnc1 | inactive
49 | COc1cc(C(=O)OCC(=O)NCc2ccc(F)cc2)cc(NC(=O)c2cccs2)c1OC | inactive
50 | CCN(CC)S(=O)(=O)c1cccc(C(=O)OCC(=O)c2ccc3c(c2)OCCO3)c1 | inactive

Row | SMILES | Potency
51 | CNc1ncnc2c1ncn2[C@@H]1O[C@H](CO)[C@@H](O)[C@H]1O | active: 16.4 µM
52 | Cc1ccc(C(=O)Nc2ccsc2C(=O)O)cc1 | active: 23.1 µM
53 | CN(C)CCCNc1cc(C(C)(C)C)nc2c(-c3ccccc3)cnn12 | inconclusive: 20.6 µM [activator, partial curve]
54 | CCCCCCCCNC(=O)/C(C#N)=C/c1ccc2c(c1)OCCO2 | inactive
55 | Oc1ccc(NCc2ccc(OCc3ccccc3)cc2)cc1 | inconclusive: 18.3 µM [activator, partial curve, poor fit]
56 | CCC(C)NC(=O)CSc1nnc(-c2cc(OC)c(OC)c(OC)c2)c(-c2cc(OC)c(OC)c(OC)c2)n1 (stereo not given) | inconclusive: 23.1 µM [activator, single point]
57 | CCOC(=O)c1ccc(NC(=O)Cn2nnc3ccccc32)cc1 | inconclusive: 15.8 µM [activator, partial curve, poor fit]
58 | Cn1c(-c2ccc(F)cc2)cc2onc(-c3c(F)cccc3Cl)c2c1=O | inconclusive: 2.91 µM [activator, partial curve]
59 | O=C(Cc1cnn(-c2ccccc2)c1)c1ccc(O)c(O)c1O | inconclusive: 3.26 µM [activator, full curve, poor fit]
60 | CCOc1ccccc1C1N=C(c2ccc(OC)cc2)CC(c2ccccc2O)N1 (stereo not given) | inconclusive: 16.4 µM [activator, partial curve, poor fit]
61 | O=C(NCCc1ccccc1)c1ccncc1 | inconclusive: 16.4 µM [activator, partial curve, poor fit]
62 | COc1ccc(C(=O)NCCCNC(=O)c2cccnc2)cc1Br | inconclusive: 13 µM [activator, partial curve, poor fit]
63 | CC(NC(=O)c1ccnn1C)C1CCCO1 (stereo not given) | inactive
64 | Cc1ccccc1CSCc1nc(N)nc(Nc2ccccc2C)n1 | inconclusive: 16.4 µM [activator, partial curve, poor fit]
65 | NC(=O)NC[C@@H]1CC[C@@H](Cc2ccc(-c3ccccc3)cc2)O1 | inconclusive: 9.2 µM [activator, partial curve]
66 | Cc1nn(-c2cccc(C(F)(F)F)c2)c(Cl)c1/C=N/Nc1cccc(C(=O)O)c1 | active: 0.411 µM
67 | COCCn1c(C)cc(C(=O)COC(=O)c2ccc3ncsc3c2)c1C | inconclusive: 5.01 µM [activator, full curve]
68 | COc1cccc(Oc2cc(NN3CCCCC3)c([N+](=O)[O-])cc2[N+](=O)[O-])c1OC | inactive
69 | COC(=O)Nc1ccc(SCC(=O)c2ccc(Cl)cc2)cc1 | inactive
70 | CC(O)CNC(=O)c1ccc(-c2nn(C)c(=O)c3ccccc23)cc1 (stereo not given) | inconclusive: 32.6 µM [activator, partial curve, poor fit]
71 | CC(C)CC(=O)N/C(N)=N/c1nc2ccccc2s1 | inconclusive: 1.41 µM [activator, partial curve, poor fit]
72 | CCOc1cc(C2NN=C(c3ccccc3)S2)ccc1OCc1ccccc1Cl (stereo not given) | inconclusive: 13 µM [activator, single point]
73 | O=C(NN=C1CCCC1)c1n[nH]c2c1CCC2 | inconclusive: 20.6 µM [activator, single point]
74 | O=C(Nc1ncccc1O)c1ccc(S(=O)(=O)N2CCCCCC2)cc1 | inconclusive: 32.6 µM [activator, partial curve, poor fit]
75 | Cc1[nH]n(C(N)=S)c(=O)c1N=Nc1cccc(Cl)c1 | inconclusive: 18.3 µM [activator, partial curve]

Reference: PubChem BioAssay AID504466 (National Center for Advancing Translational Sciences (NCATS), 2011)
